# PMC4336329 (PLoS ONE, 2015)
# Hit rate of the full screen: of about 310,000 compounds, about 14,000 (4.5%) showed an effect of 50% or more. Effects have a minus sign here. The list shows a part of the results.
# Target: human ether-à-go-go-related gene (hERG) potassium channel (human, UniProt Q12809)
# Assay: primary screen, population patch clamp on CHO cells stably expressing hERG
# 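Further: peak tail current of the secondary pulse compared with the same well before compound.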
# Chain of human ether-à-go-go-related gene (hERG) potassium channel (Q12809 whole entry, looked up): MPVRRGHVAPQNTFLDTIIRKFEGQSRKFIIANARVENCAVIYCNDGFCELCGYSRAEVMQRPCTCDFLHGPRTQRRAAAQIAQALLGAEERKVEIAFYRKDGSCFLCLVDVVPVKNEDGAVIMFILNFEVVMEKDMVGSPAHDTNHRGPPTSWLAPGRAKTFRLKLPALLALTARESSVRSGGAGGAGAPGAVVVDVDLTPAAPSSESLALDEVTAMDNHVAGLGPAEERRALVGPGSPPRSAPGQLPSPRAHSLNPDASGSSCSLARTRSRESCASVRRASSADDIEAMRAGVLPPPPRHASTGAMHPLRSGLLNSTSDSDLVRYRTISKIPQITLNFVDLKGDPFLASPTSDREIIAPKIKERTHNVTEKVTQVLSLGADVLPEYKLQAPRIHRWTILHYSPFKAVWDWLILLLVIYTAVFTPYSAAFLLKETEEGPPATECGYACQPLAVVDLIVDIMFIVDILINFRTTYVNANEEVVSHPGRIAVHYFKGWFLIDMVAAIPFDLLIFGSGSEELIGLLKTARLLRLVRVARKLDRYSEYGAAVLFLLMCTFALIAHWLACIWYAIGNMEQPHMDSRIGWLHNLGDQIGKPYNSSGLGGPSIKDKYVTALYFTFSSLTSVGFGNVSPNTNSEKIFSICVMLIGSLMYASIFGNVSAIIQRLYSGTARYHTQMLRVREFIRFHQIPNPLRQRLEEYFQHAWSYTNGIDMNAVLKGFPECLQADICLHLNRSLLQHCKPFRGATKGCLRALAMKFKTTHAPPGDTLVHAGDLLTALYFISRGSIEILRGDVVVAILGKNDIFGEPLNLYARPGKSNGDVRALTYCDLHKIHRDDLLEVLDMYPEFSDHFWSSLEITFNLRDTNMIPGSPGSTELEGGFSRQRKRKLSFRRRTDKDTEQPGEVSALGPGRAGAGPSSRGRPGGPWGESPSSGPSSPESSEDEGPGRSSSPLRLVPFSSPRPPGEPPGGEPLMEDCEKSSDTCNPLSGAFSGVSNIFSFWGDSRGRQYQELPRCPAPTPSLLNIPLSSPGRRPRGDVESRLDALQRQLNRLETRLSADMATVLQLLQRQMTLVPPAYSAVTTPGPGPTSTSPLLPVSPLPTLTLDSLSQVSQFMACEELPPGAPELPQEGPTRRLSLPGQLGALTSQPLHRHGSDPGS
row,SMILES,"hERG current change (%, negative = inhibition) at 10uM"
1,COc1ccc(S(=O)(=O)N(Cc2cc3ccc(OC)cc3[nH]c2=O)CC2COCCO2)cc1 (centres unmarked),-24.4%
2,COc1ccc(OC)c(S(=O)(=O)NC2CC(=O)N(c3cccc(F)c3)C2)c1 (centres unmarked),-0.814%
3,C/C(N)=C(/C#N)C(=O)CSc1nnc(Nc2cccc(C)c2C)s1,-0.581%
4,Cn1cc(C(=O)N2CCc3ccccc3C2)c(=O)c2cc(S(=O)(=O)N3CCCCC3)ccc21,-13.9%
5,Cc1ccc(S(=O)(=O)Cn2nnnc2C(CC(C)C)N2CCN(C)CC2)cc1.Cl (centres unmarked),6.39%
6,N#Cc1ccc(-n2nccc2-c2cnc3n(c2=O)CCS3)cc1,12.9%
7,O=C(c1ccc(Oc2ccc(Cl)cc2)c([N+](=O)[O-])c1)N1CCCC1,-63%
8,COc1cc([C@@H]2Oc3cc(C4Oc5cc(O)cc(O)c5C(=O)[C@H]4O)ccc3O[C@H]2CO)ccc1O (some centres unmarked),-1.99%
9,O=C(Nc1nc2n(n1)C(c1ccccc1)CC(c1ccc(Cl)cc1)N2)c1ccco1 (centres unmarked),-53.1%
10,CSc1cc(C)n(-c2ccccc2C)c(=S)c1C(C)=O,14%
11,COc1ccc(C)cc1Nc1nc(C)nc2sc(C)cc12,10%
12,O=C(O)C(Cc1c[nH]c2ccccc12)N1C(=O)C2C3c4ccccc4C(c4ccccc43)[C@@H]2C1=O (some centres unmarked),18%
13,COc1ccc(-n2c(C)ccc2C)c([N+](=O)[O-])c1,13.5%
14,O=S(=O)(Nc1cccc(-c2ccc(N3CCCCCC3)nn2)c1)c1ccccc1Cl,20.2%
15,CCC(C)NC(=O)Cn1nc(Cc2ccncc2)c2ccccc2c1=O (centres unmarked),4.64%
16,Cc1cccc(NS(=O)(=O)c2ccc(C3CCCCC3)cc2)n1,17.1%
17,Cc1ccsc1C(=O)NCc1ccc(Cl)cc1,11.1%
18,CCCCn1c(=O)c(Cc2ccccc2)c(O)c2ccccc21,9.75%
19,COc1ccc(S(=O)(=O)Nc2nc3ccccc3s2)cc1OC,-6.29%
20,Cc1cc2n(n1)C(c1ccsc1)Nc1ccccc1-2 (centres unmarked),-20.4%
21,CCN(CC)c1nc2cc(OC)ccc2cc1C#N,0.553%
22,O=C(COc1ccccc1[N+](=O)[O-])NCCC1=CCCCC1,20.5%

row,SMILES,"hERG current change (%, negative = inhibition) at 10uM"
1,O=[N+]([O-])c1cc(Cl)ccc1Sc1cccc2cccnc12,10.2%
2,Cc1cc(C(F)(F)F)nn1CC(=O)NNC(=S)Nc1cccc(Cl)c1,26.4%
3,CCOC(=O)c1ccccc1NC(=O)Cn1cnc2c(cnn2-c2ccccc2)c1=O,2.46%
4,C=CCn1c(SCC(=O)Nc2ccc(NC(C)=O)cc2)nc2sc(C)c(C)c2c1=O,6.04%
5,COc1ccc(S(=O)(=O)N2CC(=O)Nc3ccccc32)cc1Cl,13.4%
6,COc1ccc(C=O)cc1OS(=O)(=O)c1ccccc1[N+](=O)[O-],-3.35%
7,Cn1cc(C(=O)NCCO)c(=O)c2ccccc21,6.95%
8,CC(CC(=O)Nc1ccc(F)cc1)S(=O)(=O)c1ccc2c(c1)NC(=O)CO2 (centres unmarked),7.5%
9,COc1ccc(C)cc1S(=O)(=O)Nc1cccc(SC)c1,0.767%
10,COc1cccc(C2C(C#N)=C(N)Oc3cc(C)n(Cc4ccccn4)c(=O)c32)c1OC (centres unmarked),3.7%
11,Cc1ccc(CNC(=O)c2nc3nc(C)cc(C)n3n2)cc1,14.4%
12,CCOc1ccc(N(C(C)C(=O)N2CCOCC2)S(C)(=O)=O)cc1 (centres unmarked),11%
13,O=C(O)c1ccc(COc2ccccc2C=C2C(=O)c3ccccc3C2=O)cc1,28.2%
14,COc1ccc(/C=N/NC(=O)c2ccc(Cl)cc2)cc1Cn1cc(Cl)cn1,7.52%
15,CCOC(=O)c1c(NC(=O)CSc2nnc(Cc3csc(N)n3)n2C)sc(C)c1C,-51.8%
16,O=S(=O)(c1ccc(Cl)cc1)N(Cc1ccccn1)Cc1ccccn1,-15.3%
17,CC(=O)N1CCC(C(=O)NC2CC(C)(C)Cc3c2cnn3-c2ccc(F)cc2)CC1 (centres unmarked),-25.3%
18,O=C(c1ccc(N2CC3CC(C2)c2cccc(=O)n2C3)c([N+](=O)[O-])c1)N1CCCCC1 (centres unmarked),-27.9%
19,O=C(NC(NCc1ccccc1)C(Cl)(Cl)Cl)c1cccnc1 (centres unmarked),6.37%
20,CCCCc1ccc(NC(=O)CSc2nnc(C)c(=O)n2N)cc1,-23.9%
21,Cc1nc(C)c(C(=O)Nc2cccc(F)c2)s1,6.85%
22,O=C(CN1C(=O)C2CC=CCC2C1=O)NC1CCCCC1 (centres unmarked),18.9%

row,SMILES,"hERG current change (%, negative = inhibition) at 10uM"
1,NS(=O)(=O)c1ccc(CCNc2ncnc3c2c(-c2ccccc2)cn3-c2ccc(F)cc2)cc1,4.31%
2,CN(C)C(=O)c1ccc(NC(=O)COC(=O)CC23CC4CC(CC(Br)(C4)C2)C3)cc1,-10.1%
3,COc1cccc(-n2nnnc2SCC(=O)N2CCCc3ccccc32)c1,-11.3%
4,CN(Cc1ccc(F)cc1)C(=O)c1cccc(S(=O)(=O)N2CCN(Cc3ccccc3)CC2)c1,-16%
5,Cc1ccc(S(=O)(=O)NCc2ccccc2)cc1C(=O)N1CCN(c2ccccc2)CC1,-24.6%
6,COc1ccc(C2c3c(oc4ccccc4c3=O)C(=O)N2Cc2ccncc2)cc1OC (centres unmarked),-9.16%
7,CCNc1nc(Cl)nc(N(NC(C)=O)C(C)C)n1,17.2%
8,CCCN(CCC)C(=O)CSc1nc2n[nH]c(C)c2c(=N)n1-c1ccc(OC)cc1,-35%
9,COc1ccc(C2=CC(=O)CC(c3ccc(OC)cc3)C2)cc1 (centres unmarked),2.96%
10,COc1ccc(Cc2nnc(NC(=O)c3ccccc3C)s2)cc1,15.4%
11,CC(C)Oc1ccc(CNC(=O)CC(c2ccccc2)c2cc(Cl)ccc2O)cc1 (centres unmarked),11.8%
12,O=C(O)c1cccc(N2C(=O)c3cccc4cccc(c34)C2=O)c1,12.7%
13,Cc1ccccc1NC(=O)CC1C(=O)Nc2ccccc2N1CC(=O)N(C)C1CCS(=O)(=O)C1 (centres unmarked),6.56%
14,O=C(NCc1ccccc1)c1onc(CSc2nc3ccccc3[nH]2)c1C(=O)NCc1ccccc1,-2.16%
15,C/C(=N\NC(=O)C(O)c1ccccc1)c1cccnc1 (centres unmarked),24.5%
16,Cc1cccc(/C(N)=N/OC(=O)c2ccc(Br)o2)c1,11.7%
17,CCNCCNC(=O)c1c(O)c2cccc3c2n(c1=O)CCC3.Cl,-3.98%
18,Cc1nnc(-c2cnn(C)c2N)n1Cc1ccccc1F,19.6%
19,CN(C)c1nc(Nc2ccc(Cl)c(Cl)c2)nc(N(C)C)n1,6.76%
20,Cc1cc([N+](=O)[O-])ccc1NC(=O)CSc1nncn1-c1cccnc1,-42.2%
21,CC(C)CNC(=O)c1ccccc1NC(=O)c1ccc(CSc2ccccc2)cc1,11.2%
22,Cc1cc(C)n(C(=O)c2ccc(C)c(S(=O)(=O)N3CCCC3)c2)n1,-11.8%

row,SMILES,"hERG current change (%, negative = inhibition) at 10uM"
1,O=C(Nc1ccc(C(=O)Nc2ccccc2Cl)cc1)c1cccnc1,5.11%
2,CCOc1ccccc1N(CC(=O)NC1CCCC1)C(=O)CCCC(=O)Nc1ccccn1,-8.6%
3,COc1ccc(OC)c(Nc2nc(N)nc(CSc3nnc(N)s3)n2)c1,-3.49%
4,Cc1cc(Cl)ccc1C(=O)C1CCCN(C(=O)c2n[nH]c3c2CCCC3)C1 (centres unmarked),11.6%
5,O=C(COc1ccccc1Br)NC1CC1,18.1%
6,CCOC(=O)c1[nH]c2cc3c(cc2c1NC(=O)CN1CCN(CCO)CC1)OCO3,-25.8%
7,Cc1cc(C)c(C)c(S(=O)(=O)Nc2cccnc2)c1C,11.1%
8,CCCC1CCC(C(=O)Nn2cnc3ccccc3c2=O)CC1 (centres unmarked),-20.2%
9,CCN(CC)c1cccc(OCC(=O)N2c3ccccc3CC2C)c1 (centres unmarked),-0.158%
10,CNNCc1ccc(C(=O)NC(C)C)cc1.Cl,7.55%
11,Cc1onc(-c2ccccc2)c1C(=O)NC(CC(=O)O)c1ccc(OC(C)C)cc1 (centres unmarked),8.3%
12,O=C(N/N=C/c1cccs1)C(O)c1ccccc1 (centres unmarked),19.3%
13,CCN(c1cccc(C)c1)S(=O)(=O)c1ccc2c(c1)N(C(C)=O)CCS2,-15%
14,COc1ccccc1OCC(=O)Nc1cc2c(cc1C(=O)O)OCCCO2,9.79%
15,O=C(c1ccc(OC2CCN(CCc3ccccc3)CC2)cc1)N1CCCC(CCCO)C1 (centres unmarked),-13.4%
16,CC(C)[C@H](NC(=O)c1ccc(F)cc1)C(=O)OCC(=O)NC(=O)c1cccn1C,-17.3%
17,Cc1ccc(/C=N/NC(=O)CCSc2ccccc2)cc1,7.51%
18,S=C(Nc1cccc(Cl)c1)NC1CC2CCCC(C1)N2C1CCCC1 (centres unmarked),19%
19,COc1ccccc1NS(=O)(=O)c1cc2c3c(c1)CCN3C(=O)CC2,5.7%
20,COc1ccc(N2CCN(C(=O)Cc3cccs3)CC2)cc1,1.11%
